In article PMC3004914, “Classification of Drugs Based on Properties of Sodium Channel Inhibition: A Comparative Automated Patch-Clamp Study” (PLoS ONE, 2010):
Like-named read-outs stand apart in the source and are kept apart here. One block for each compound: values may come before it.

Key:
[1] = molecular target: T1, rNav1.2 sodium channels (HEK-293 cells) (Rattus norvegicus, UniProt P04775); experiment: 5 Hz train protocol, QPatch automated patch-clamp; assay type: cell-based
From the text: The dynamics of the onset and offset of inhibition was monitored using 5 Hz trains of five depolarizing pulses from a holding potential of −90 mV to −10 mV. The trains were repeated every 20 s. Drugs were applied after 10 control trains and 10 trains were delivered in the presence of the drug. The drug was then washed out, and the 10 trains were repeated.
We measured inhibition (Inh; from which we calculated IC50 values as described in Materials and Methods), reversibility of inhibition (Rev) and use-dependence (UD), as well as time constant of onset (τon) and offset (τoff). The calculation of IC50, quantification of Rev and UD, and the determination of time constants are illustrated in Figure 1A. Because τon should be concentration-dependent if we assume a single binding reaction, we excluded it from the analyses. […] Comments on the interpretation of these properties (Rev, […] and UD) are in Results S1.
(§1) A)–D) Peak amplitudes of evoked currents (5 Hz trains of 5 depolarizations from −90 to −10 mV) are plotted against time. Black dots: Control. Grey dots: Drug perfusion. […] Calculation of properties of inhibition is illustrated. […] E) Calculation of Kr and Ki values from steady-state availability curves.
(§2) HEK-293 cells stably expressing rNav1.2 sodium channels were obtained from NeuroSearch (Ballerup, Denmark).
(§3) Cells were automatically prepared for application to the chips (centrifuged and washed twice, then resuspended in extracellular solution) as described previously. Composition of the extracellular solution was: (in mM): 140 NaCl, 3 KCl, 1 CaCl2, 1 MgCl2, 0.1 CdCl2, 20 TEA-Cl, 5 HEPES, adjusted to pH 7.3, Osmolality: ∼320 mOsm.
All electrophysiological experiments were conducted on Qpatch-16 or QPatch HT instruments using QPlate™ chips. For a detailed description of the instrument and the patch-clamp chips see [37], [38]. Data were sampled at a frequency of 25 kHz and filtered at 5 kHz. […]
From this protocol we extracted five parameters, as illustrated in Figure 1A. We calculated inhibition of a single “cc” concentration: Inh = (amplitudectr – amplitudedrug)/amplitudectr.

[2] = molecular target: T1, rNav1.2 sodium channels (HEK-293 cells); experiment: steady-state inactivation protocol (availability curves), QPatch automated patch-clamp; assay type: cell-based
From the text: as §1
Standard steady-state inactivation protocols were used to measure the shift of steady-state availability curve caused by the drugs. Currents were evoked by a 10 ms test pulse to −10 mV, preceded by 400 ms pre-pulses from −150 to −30 mV. […] Because the inhibition at hyperpolarized potentials (Inh−150), and the shift of the availability curves (ΔV1/2) are both concentration-dependent properties, we calculated affinities to hyperpolarized and depolarized states (“resting state affinity”: Kr, and “inactivated state affinity”: Ki), which, on the other hand, are concentration-independent characteristics of individual drugs. Calculation of Kr and Ki values are described in Materials and Methods, and illustrated in Figure 1E. State-dependence (SD) was quantified as the ratio Kr/Ki.
as §2, §3
All electrophysiological experiments were conducted on Qpatch-16 or QPatch HT instruments using QPlate™ chips. For a detailed description of the instrument and the patch-clamp chips see [37], [38]. Data were sampled at a frequency of 25 kHz and filtered at 5 kHz. […] The amplifier was controlled and the data were collected by the Sophion QPatch client software. For initial data analysis the QPatch software was used. Built-in amplifiers provide an improved method for series resistance compensation. Leak subtraction (based on a standard P/n protocol) was used to subtract the capacitive component of currents.
Inactivated affinity (Ki) values were calculated assuming a simple four-state model of drug binding and channel gating, using two separate methods: (1) from the shift of the availability curve (ΔV1/2), the slope of the Boltzmann fit of the availability curve (k) and Kr, using the formula described by Bean, Cohen and Tsien (Ki−ΔV1/2; see Figure 1E), or (2) from the apparent affinity (Kapp) at a certain pre-pulse potential, which was calculated from the inhibition (e.g. Inh−60) as described above, and the availability (h) at the same pre-pulse potential, using the formula from Kuo and Bean (Figure 1E). […] (Arithmetic means and SEM values are given in Results S7.)

sodium channels = details: cited from earlier work; for Ki: read-out: Ki−Lit; for Kd: read-out: Kr−Lit
[3] = arithmetic mean, 30 µM, read-out: Ki-Kapp arith
[4] = arithmetic mean, 30 µM, read-out: Ki-ΔV1/2 arith
[5] = arithmetic mean, 30 µM, read-out: Kr arith
[6] = geometric mean, from Inh at −150 mV, 30 µM, read-out: Kr (resting state affinity)
[7] = geometric mean, from apparent affinity, 30 µM, read-out: Ki−Kapp (inactivated state affinity)
[8] = geometric mean, from shift of availability curve, 30 µM, read-out: Ki−ΔV1/2 (inactivated state affinity)

T1 sequence (P04775 whole entry): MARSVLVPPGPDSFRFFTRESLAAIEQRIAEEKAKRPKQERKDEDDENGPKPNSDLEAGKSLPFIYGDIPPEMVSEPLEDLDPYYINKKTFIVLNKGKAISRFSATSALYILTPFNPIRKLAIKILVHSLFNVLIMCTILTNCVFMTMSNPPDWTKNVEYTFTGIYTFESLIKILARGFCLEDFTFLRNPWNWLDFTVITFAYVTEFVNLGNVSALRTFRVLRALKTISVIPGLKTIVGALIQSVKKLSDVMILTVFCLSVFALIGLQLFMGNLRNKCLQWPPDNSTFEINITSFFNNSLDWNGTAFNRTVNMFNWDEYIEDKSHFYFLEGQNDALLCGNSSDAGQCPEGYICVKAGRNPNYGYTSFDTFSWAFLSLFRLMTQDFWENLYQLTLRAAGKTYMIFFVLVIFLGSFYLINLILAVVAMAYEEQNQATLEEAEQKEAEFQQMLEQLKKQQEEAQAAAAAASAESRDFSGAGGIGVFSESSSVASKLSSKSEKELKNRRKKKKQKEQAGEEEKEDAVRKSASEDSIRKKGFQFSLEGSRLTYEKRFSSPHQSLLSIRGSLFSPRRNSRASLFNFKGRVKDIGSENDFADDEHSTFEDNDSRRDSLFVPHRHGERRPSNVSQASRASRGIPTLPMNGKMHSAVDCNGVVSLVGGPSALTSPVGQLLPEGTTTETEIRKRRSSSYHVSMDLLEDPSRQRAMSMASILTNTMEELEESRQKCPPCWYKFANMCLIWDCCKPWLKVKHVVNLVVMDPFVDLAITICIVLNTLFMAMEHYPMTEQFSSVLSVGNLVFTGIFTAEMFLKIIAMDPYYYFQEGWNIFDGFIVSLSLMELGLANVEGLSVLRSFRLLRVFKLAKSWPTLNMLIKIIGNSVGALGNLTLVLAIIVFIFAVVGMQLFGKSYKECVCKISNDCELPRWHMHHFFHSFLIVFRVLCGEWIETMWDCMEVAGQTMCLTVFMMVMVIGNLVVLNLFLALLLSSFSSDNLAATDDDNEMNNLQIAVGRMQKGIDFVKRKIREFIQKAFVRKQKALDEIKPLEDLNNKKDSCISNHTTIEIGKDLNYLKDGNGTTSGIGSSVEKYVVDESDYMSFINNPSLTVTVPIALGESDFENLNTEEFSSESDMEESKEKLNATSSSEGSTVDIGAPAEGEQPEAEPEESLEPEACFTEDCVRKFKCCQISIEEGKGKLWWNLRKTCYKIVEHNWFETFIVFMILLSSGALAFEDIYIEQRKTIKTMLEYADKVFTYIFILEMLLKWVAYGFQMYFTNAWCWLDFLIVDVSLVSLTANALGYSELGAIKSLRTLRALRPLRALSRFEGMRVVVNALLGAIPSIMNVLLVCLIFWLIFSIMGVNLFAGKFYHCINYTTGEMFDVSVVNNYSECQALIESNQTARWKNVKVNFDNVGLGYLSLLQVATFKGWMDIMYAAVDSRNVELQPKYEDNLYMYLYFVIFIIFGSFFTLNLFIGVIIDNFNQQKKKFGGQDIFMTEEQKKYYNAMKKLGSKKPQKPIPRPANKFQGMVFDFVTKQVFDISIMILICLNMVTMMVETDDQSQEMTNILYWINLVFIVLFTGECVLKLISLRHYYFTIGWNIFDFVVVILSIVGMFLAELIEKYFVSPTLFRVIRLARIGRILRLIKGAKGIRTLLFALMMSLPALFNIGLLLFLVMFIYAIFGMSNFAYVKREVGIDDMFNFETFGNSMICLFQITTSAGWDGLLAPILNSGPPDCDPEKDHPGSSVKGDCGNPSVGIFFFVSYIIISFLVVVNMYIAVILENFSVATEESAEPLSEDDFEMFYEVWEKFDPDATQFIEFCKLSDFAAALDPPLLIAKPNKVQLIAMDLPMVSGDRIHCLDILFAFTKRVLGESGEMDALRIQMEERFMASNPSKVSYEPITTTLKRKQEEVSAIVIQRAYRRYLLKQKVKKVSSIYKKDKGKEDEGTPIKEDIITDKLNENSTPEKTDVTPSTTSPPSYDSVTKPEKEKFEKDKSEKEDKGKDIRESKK

potency estimated from few doses ([1]; HEK293, calculated from Inh at single concentration 100 μM, −90 mV, read-out: IC50): 94.5 µM | Ki ([2]; arithmetic mean, 100 µM, read-out: Ki-Kapp arith): 14.1 µM | Ki ([2]; arithmetic mean, 100 µM, read-out: Ki-ΔV1/2 arith): 13.3 µM | Kd ([2]; arithmetic mean, 100 µM, read-out: Kr arith): 255 µM | Kd ([2]; geometric mean, from Inh at −150 mV, 100 µM, read-out: Kr (resting state affinity)): 249 µM | Ki ([2]; geometric mean, from apparent affinity, 100 µM, read-out: Ki−Kapp (inactivated state affinity)): 12.4 µM | Ki ([2]; geometric mean, from shift of availability curve, 100 µM, read-out: Ki−ΔV1/2 (inactivated state affinity)): 11 µM
SMILES: CN1CCN(C2=Nc3cc(Cl)ccc3Nc3ccccc32)CC1 [CLZ, Clozapine]

SMILES: Fc1ccc(C(c2ccc(F)cc2)N2CCN(C/C=C/c3ccccc3)CC2)cc1 [FLR, Flunarizine]
Ki (sodium channels; literature): < 0.2 µM

potency estimated from few doses ([1]; HEK293, calculated from Inh at single concentration 30 μM, −90 mV, read-out: IC50): 20.4 µM | Ki [2, 3]: 3.27 µM | Ki [2, 4]: 16.6 µM | Kd [2, 5]: 128 µM | Kd [2, 6]: 113 µM | Ki [2, 7]: 2.96 µM | Ki [2, 8]: 13.8 µM
SMILES: O=C(CCCN1CCC(O)(c2ccc(Cl)cc2)CC1)c1ccc(F)cc1 [HAL, Haloperidol]
Ki (sodium channels; averaged literature data): 0.28 µM | Kd (sodium channels; averaged literature data): 7 µM

SMILES: O=c1n(CCCN2CCN(c3cccc(Cl)c3)CC2)nc2ccccn12 [TRZ, Trazodone]
Ki (sodium channels; literature): ~111 µM | Kd (sodium channels; literature): ~1000 µM

SMILES: CNCCC(Oc1ccc(C(F)(F)F)cc1)c1ccccc1 (centres unmarked) [FLX, Fluoxetine]
Ki (sodium channels; averaged literature data): 1.2 µM | Kd (sodium channels; averaged literature data): 89.4 µM

SMILES: CN[C@H]1CC[C@@H](c2ccc(Cl)c(Cl)c2)c2ccccc21 [SRT, Sertraline]
potency estimated from few doses ([1]; HEK293, read-out: IC50, calculated from Inh at single concentration 30 μM, −90 mV): 14.3 µM | Ki [2, 3]: 2.43 µM | Ki [2, 4]: 1.59 µM | Kd [2, 5]: 57.4 µM | Kd [2, 6]: 56.4 µM | Ki [2, 7]: 2.1 µM | Ki [2, 8]: 1.47 µM

SMILES: CNCCCC12CCC(c3ccccc31)c1ccccc12 [MPR, Maprotiline]
Ki (sodium channels; averaged literature data): 1.45 µM | Kd (sodium channels; averaged literature data): 18.3 µM

SMILES: CN1CCN2c3ccccc3Cc3ccccc3C2C1 (centres unmarked) [MIA, Mianserin]
Ki (sodium channels; averaged literature data): 1.3 µM | Kd (sodium channels; averaged literature data): 190 µM
